Experiment [1] addresses T1, Mec3 (two-hybrid fusion) (S. cerevisiae) (UniProt Q02574).
T1 sequence: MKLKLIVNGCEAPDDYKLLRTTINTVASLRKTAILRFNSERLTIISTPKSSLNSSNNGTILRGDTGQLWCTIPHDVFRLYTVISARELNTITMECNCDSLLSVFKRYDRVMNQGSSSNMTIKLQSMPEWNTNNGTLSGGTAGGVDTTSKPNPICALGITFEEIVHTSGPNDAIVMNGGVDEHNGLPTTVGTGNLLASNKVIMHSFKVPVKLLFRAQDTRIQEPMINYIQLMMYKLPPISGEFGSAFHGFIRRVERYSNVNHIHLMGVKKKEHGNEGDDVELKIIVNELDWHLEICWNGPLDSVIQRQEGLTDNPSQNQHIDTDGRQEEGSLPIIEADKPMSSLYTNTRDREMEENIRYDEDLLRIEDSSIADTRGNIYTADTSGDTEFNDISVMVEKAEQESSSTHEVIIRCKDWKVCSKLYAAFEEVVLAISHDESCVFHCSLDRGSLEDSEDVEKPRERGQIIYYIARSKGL
As to the kind of experiment: two-hybrid; Gal4 DB bait (pMB27) and Gal4 AD prey (pMB29) in diploid cdc13-1 reporter strains; growth on SC-His-Leu-Trp and SC-Ade-Leu-Trp, spotted at 23-29°C (23°C and 27°C shown); interactions of Ddc1 seem less strong at 27°C than at 23°C.

Chains of the proteins cited; added tags and fusions are not shown.
UniProt P38859: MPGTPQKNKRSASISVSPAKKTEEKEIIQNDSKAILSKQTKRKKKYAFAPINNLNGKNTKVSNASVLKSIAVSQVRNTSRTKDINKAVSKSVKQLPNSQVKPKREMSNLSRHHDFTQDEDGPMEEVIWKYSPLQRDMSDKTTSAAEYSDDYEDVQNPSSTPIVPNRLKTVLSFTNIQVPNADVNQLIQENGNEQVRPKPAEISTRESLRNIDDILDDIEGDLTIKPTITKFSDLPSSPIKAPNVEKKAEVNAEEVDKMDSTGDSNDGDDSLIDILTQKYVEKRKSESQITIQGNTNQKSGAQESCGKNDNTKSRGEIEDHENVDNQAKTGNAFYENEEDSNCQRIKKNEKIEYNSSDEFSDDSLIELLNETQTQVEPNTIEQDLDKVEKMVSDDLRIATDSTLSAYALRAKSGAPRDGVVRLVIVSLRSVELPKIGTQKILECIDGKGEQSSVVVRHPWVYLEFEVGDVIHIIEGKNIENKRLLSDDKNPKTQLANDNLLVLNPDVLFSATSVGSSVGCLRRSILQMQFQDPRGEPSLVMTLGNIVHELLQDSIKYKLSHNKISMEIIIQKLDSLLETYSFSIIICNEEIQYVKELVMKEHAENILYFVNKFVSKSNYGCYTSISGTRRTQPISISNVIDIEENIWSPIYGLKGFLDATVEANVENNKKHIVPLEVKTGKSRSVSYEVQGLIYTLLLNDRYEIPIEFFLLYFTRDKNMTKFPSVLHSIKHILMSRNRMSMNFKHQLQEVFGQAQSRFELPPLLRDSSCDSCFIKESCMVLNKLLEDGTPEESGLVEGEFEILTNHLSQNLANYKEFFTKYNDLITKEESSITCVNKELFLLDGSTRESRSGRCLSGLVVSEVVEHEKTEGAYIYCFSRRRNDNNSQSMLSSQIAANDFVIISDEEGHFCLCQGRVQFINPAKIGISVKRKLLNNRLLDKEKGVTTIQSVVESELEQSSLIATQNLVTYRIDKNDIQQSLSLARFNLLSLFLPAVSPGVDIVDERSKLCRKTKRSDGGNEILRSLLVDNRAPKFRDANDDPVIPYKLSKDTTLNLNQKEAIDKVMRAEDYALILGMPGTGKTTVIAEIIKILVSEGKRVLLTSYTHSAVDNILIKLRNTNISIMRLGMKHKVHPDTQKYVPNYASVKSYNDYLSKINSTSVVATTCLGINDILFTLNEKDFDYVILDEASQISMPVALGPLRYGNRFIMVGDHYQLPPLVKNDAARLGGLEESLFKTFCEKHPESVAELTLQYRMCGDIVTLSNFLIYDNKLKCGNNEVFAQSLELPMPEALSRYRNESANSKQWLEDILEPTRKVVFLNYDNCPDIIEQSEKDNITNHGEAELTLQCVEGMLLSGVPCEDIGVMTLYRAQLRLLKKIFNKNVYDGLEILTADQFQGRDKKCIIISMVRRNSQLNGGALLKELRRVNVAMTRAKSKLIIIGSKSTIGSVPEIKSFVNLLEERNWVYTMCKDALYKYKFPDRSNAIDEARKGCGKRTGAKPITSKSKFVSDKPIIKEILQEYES

Experiment [2] concerns the target T2, Rad17 (two-hybrid fusion) (S. cerevisiae) (UniProt P48581).
T2 sequence: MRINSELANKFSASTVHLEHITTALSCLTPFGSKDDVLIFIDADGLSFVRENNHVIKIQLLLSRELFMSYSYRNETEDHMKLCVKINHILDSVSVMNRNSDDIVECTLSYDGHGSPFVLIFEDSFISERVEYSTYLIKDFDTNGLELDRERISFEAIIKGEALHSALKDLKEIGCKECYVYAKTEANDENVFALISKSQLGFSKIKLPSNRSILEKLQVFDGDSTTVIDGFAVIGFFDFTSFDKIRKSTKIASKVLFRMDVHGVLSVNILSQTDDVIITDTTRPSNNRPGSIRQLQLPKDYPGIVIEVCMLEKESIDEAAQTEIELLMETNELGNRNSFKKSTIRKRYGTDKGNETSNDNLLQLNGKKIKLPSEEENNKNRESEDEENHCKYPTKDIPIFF
The experiment is described as above.

Experiment [3] addresses T3, Ddc1-Myc (S. cerevisiae) (UniProt Q08949).
T3 sequence: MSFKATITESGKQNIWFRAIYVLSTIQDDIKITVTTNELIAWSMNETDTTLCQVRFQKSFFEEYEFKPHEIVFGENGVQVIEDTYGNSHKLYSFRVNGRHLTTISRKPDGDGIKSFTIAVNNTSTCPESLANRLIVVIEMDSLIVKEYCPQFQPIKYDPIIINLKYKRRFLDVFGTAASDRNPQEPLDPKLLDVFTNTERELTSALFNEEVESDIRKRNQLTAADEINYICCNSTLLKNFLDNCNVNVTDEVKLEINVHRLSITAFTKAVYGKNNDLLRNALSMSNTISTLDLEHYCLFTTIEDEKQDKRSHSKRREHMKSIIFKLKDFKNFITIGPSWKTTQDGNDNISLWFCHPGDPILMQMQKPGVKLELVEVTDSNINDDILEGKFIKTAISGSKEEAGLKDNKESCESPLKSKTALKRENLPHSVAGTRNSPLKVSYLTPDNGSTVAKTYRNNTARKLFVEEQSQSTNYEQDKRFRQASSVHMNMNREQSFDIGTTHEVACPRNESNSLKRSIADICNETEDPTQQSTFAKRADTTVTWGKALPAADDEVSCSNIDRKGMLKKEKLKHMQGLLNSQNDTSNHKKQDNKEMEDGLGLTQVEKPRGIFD
As to the kind of experiment: co-IP; yeast cell lysates in IP buffer (pH 7.5, 20 mM HEPES, 140 mM NaCl, 1 mM EDTA, 1% Triton X 100, 0.1% sodium deoxycholate); anti-HA or anti-Myc antibody, protein G Dynabeads, 4°C overnight; four washes; western blot with anti-HA or anti-Myc. For orientation: Immunoblotting shows a protein as a band on a membrane.

Results are given in words; binding and its absence hold for the method and conditions named. For part of these data: In cells and extracts the contact can be indirect. Some binding calls cover weakened binding; strength is not graded here. Where a sequence is shown, tags or fusion partners need not be part of it.

Consider “Dna2 (two-hybrid fusion) (from UniProt P38859 1-1522)”, for which the binding result in experiment [1] and in experiment [2] was “no binding” each time.

Dna2-HA (from UniProt P38859 1-1522): in experiment [3], the binding entry is reported as “no binding”.

B1: Exo1-HA (protein, UniProt P39875 1-702)
chain: MGIQGLLPQLKPIQNPVSLRRYEGEVLAIDGYAWLHRAACSCAYELAMGKPTDKYLQFFIKRFSLLKTFKVEPYLVFDGDAIPVKKSTESKRRDKRKENKAIAERLWACGEKKNAMDYFQKCVDITPEMAKCIICYCKLNGIRYIVAPFEADSQMVYLEQKNIVQGIISEDSDLLVFGCRRLITKLNDYGECLEICRDNFIKLPKKFPLGSLTNEEIITMVCLSGCDYTNGIPKVGLITAMKLVRRFNTIERIILSIQREGKLMIPDTYINEYEAAVLAFQFQRVFCPIRKKIVSLNEIPLYLKDTESKRKRLYACIGFVIHRETQKKQIVHFDDDIDHHLHLKIAQGDLNPYDFHQPLANREHKLQLASKSNIEFGKTNTTNSEAKVKPIESFFQKMTKLDHNPKVANNIHSLRQAEDKLTMAIKRRKLSNANVVQETLKDTRSKFFNKPSMTVVENFKEKGDSIQDFKEDTNSQSLEEPVSESQLSTQIPSSFITTNLEDDDNLSEEVSEVVSDIEEDRKNSEGKTIGNEIYNTDDDGDGDTSEDYSETAESRVPTSSTTSFPGSSQRSISGCTKVLQKFRYSSSFSGVNANRQPLFPRHVNQKSRGMVYVNQNRDDDCDDNDGKNQITQRPSLRKSLIGARSQRIVIDMKSVDERKSFNSSPILHEESKKRDIETTKSSQARPAVRSISLLSQFVYKGK
In the case of B1, the binding result in experiment [3] is recorded as “no binding”.

B2: Mec3-HA (protein, UniProt Q02574 1-474)
chain: T1 sequence
B2: the binding result in experiment [3] is “binds”.

B3: Mec3 (two-hybrid fusion) (protein, UniProt Q02574 1-474)
chain: T1 sequence
As to B3, in experiment [2], the binding entry was “binds”.

B4: Ddc1 (two-hybrid fusion) (protein, UniProt Q08949 1-612)
chain: T3 sequence
As to B4, the binding result in experiment [1] and in experiment [2] was “binds” in each case.

B5: Sgs1-HA (protein, UniProt P35187 1-1447)
chain: MVTKPSHNLRREHKWLKETATLQEDKDFVFQAIQKHIANKRPKTNSPPTTPSKDECGPGTTNFITSIPASGPTNTATKQHEVMQTLSNDTEWLSYTATSNQYADVPMVDIPASTSVVSNPRTPNGSKTHNFNTFRPHMASSLVENDSSRNLGSRNNNKSVIDNSSIGKQLENDIKLEVIRLQGSLIMALKEQSKLLLQKCSIIESTSLSEDAKRLQLSRDIRPQLSNMSIRIDSLEKEIIKAKKDGMSKDQSKGRSQVSSQDDNIISSILPSPLEYNTSSRNSNLTSTTATTVTKALAITGAKQNITNNTGKNSNNDSNNDDLIQVLDDEDDIDCDPPVILKEGAPHSPAFPHLHMTSEEQDELTRRRNMRSREPVNYRIPDRDDPFDYVMGKSLRDDYPDVEREEDELTMEAEDDAHSSYMTTRDEEKEENELLNQSDFDFVVNDDLDPTQDTDYHDNMDVSANIQESSQEGDTRSTITLSQNKNVQVILSSPTAQSVPSNGQNQIGVEHIDLLEDDLEKDAILDDSMSFSFGRQHMPMSHSDLELIDSEKENEDFEEDNNNNGIEYLSDSDLERFDEERENRTQVADIQELDNDLKIITERKLTGDNEHPPPSWSPKIKREKSSVSQKDEEDDFDDDFSLSDIVSKSNLSSKTNGPTYPWSDEVLYRLHEVFKLPGFRPNQLEAVNATLQGKDVFVLMPTGGGKSLCYQLPAVVKSGKTHGTTIVISPLISLMQDQVEHLLNKNIKASMFSSRGTAEQRRQTFNLFINGLLDLVYISPEMISASEQCKRAISRLYADGKLARIVVDEAHCVSNWGHDFRPDYKELKFFKREYPDIPMIALTATASEQVRMDIIHNLELKEPVFLKQSFNRTNLYYEVNKKTKNTIFEICDAVKSRFKNQTGIIYCHSKKSCEQTSAQMQRNGIKCAYYHAGMEPDERLSVQKAWQADEIQVICATVAFGMGIDKPDVRFVYHFTVPRTLEGYYQETGRAGRDGNYSYCITYFSFRDIRTMQTMIQKDKNLDRENKEKHLNKLQQVMAYCDNVTDCRRKLVLSYFNEDFDSKLCHKNCDNCRNSANVINEERDVTEPAKKIVKLVESIQNERVTIIYCQDVFKGSRSSKIVQANHDTLEEHGIGKSMQKSEIERIFFHLITIRVLQEYSIMNNSGFASSYVKVGPNAKKLLTGKMEIKMQFTISAPNSRPSTSSSFQANEDNIPVIAQKSTTIGGNVAANPPRFISAKEHLRSYTYGGSTMGSSHPITLKNTSDLRSTQELNNLRMTYERLRELSLNLGNRMVPPVGNFMPDSILKKMAAILPMNDSAFATLGTVEDKYRRRFKYFKATIADLSKKRSSEDHEKYDTILNDEFVNRAAASSNGIAQSTGTKSKFFGANLNEAKENEQIINQIRQSQLPKNTTSSKSGTRSISKSSKKSANGRRGFRNYRGHYRGRK
For B5, the binding entry in experiment [3] was “no binding”.
